# In a collection of fitness landscapes (doi:10.1126/science.1257360):
# The other results are listed elsewhere or left out.
# B1: PhoQ; a variant is named by its letters at X, in order, P23837 (parent)
# chain: MKKLLRLFFPLSLRVRFLLATAAVVLVLSLAYGMVALIGYSVSFDKTTFRLLRGESNLFYTLAKWENNKLHVELPENIDKQSPTMTLIYDENGQLLWAQRDVPWLMKMIQPDWLKSNGFHEIEADVNDTSLLLSGDHSIQQQLQEVREDDDDAEMTHSVAVNVYPATSRMPKLTIVVVDTIPVELKSSYMVWSWFIYVLSANLLLVIPLLWVAAWWSLRPIEALAKEVRELEEHNRELLNPATTRELTSLVRNLNRLLKSERERYDKYRTTLTDLTHSLKTPLXXLQXXLRSLRSEKMSVSDAEPVMLEQISRISQQIGYYLHRASMRGGTLLSRELHPVAPLLDNLTSALNKVYQRKGVNISLDISPEISFVGEQNDFVEVMGNVLDNACKYCLEFVEISARQTDEHLYIVVEDDGPGIPLSKREVIFDRGQRVDTLRPGQGVGLAVAREITEQYEGKIVAGESMLGGARMEVIFGRQHSAPKDE
# Variants of: B1
# Assay: enrichment ratio after two sorts for PhoP signalling (ratio (wild type AVST 3.29)); higher = more functional
# Details: with PhoP (E. coli)
row,Variant,enrichment ratio
1,DNSW,≤ 0.25
2,WRYY,≤ 0.25
3,AMYT,0.317
4,TIKP,≤ 0.25
5,SSSC,9.78
6,RKQD,≤ 0.25
7,MWTV,≤ 0.25
8,RRTI,≤ 0.25
9,LDYI,≤ 0.25
10,FQNK,≤ 0.25
11,PMNE,≤ 0.25
12,YGQG,≤ 0.25
13,PWDF,≤ 0.25
14,GDLF,≤ 0.25
15,KQLI,≤ 0.25
16,KCAI,≤ 0.25
17,LQIL,≤ 0.25
18,PAHW,≤ 0.25
19,IPWN,≤ 0.25
20,DLVY,≤ 0.25
21,WHAF,≤ 0.25
22,FCMH,≤ 0.25
23,QESY,≤ 0.25
24,PNWN,≤ 0.25
25,KYCS,≤ 0.25
26,GRRD,≤ 0.25

row,Variant,enrichment ratio
1,NCYW,≤ 0.25
2,SDYI,≤ 0.25
3,VNWG,≤ 0.25
4,GATY,≤ 0.25
5,KQAD,≤ 0.25
6,RACK,≤ 0.25
7,MHIL,≤ 0.25
8,IRGH,≤ 0.25
9,SSYN,≤ 0.25
10,FYAL,≤ 0.25
11,RWFH,≤ 0.25
12,IIAM,≤ 0.25
13,DDYC,≤ 0.25
14,NRNT,≤ 0.25
15,LWQY,≤ 0.25
16,NPGV,≤ 0.25
17,TTRW,≤ 0.25
18,KFLE,≤ 0.25
19,RELD,≤ 0.25
20,SKWI,≤ 0.25
21,IVVY,≤ 0.25
22,GNMT,≤ 0.25
23,GFEV,≤ 0.25
24,CLSF,10.1
25,DLHG,≤ 0.25
26,TGHG,4.69

row,Variant,enrichment ratio
1,TAWI,10.7
2,YCPN,≤ 0.25
3,FTII,≤ 0.25
4,GATV,0.428
5,NCWD,≤ 0.25
6,TWGR,≤ 0.25
7,TNRC,≤ 0.25
8,EAYD,≤ 0.25
9,IYWK,≤ 0.25
10,GKPW,≤ 0.25
11,SYCD,≤ 0.25
12,DHWH,≤ 0.25
13,TKQC,12.8
14,RKEE,≤ 0.25
15,TYMC,≤ 0.25
16,DDWL,≤ 0.25
17,DMDK,≤ 0.25
18,GDMT,≤ 0.25
19,KTTW,≤ 0.25
20,KVCI,≤ 0.25
21,QMIH,1.16
22,DQAW,≤ 0.25
23,TMIA,≤ 0.25
24,WKFI,≤ 0.25
25,QDYM,≤ 0.25
26,YWMK,≤ 0.25

row,Variant,enrichment ratio
1,MSSS,0.538
2,VAAD,≤ 0.25
3,IYVT,≤ 0.25
4,IQGD,≤ 0.25
5,KEVG,≤ 0.25
6,MGHP,≤ 0.25
7,MYAS,≤ 0.25
8,YYHK,≤ 0.25
9,YCLL,10.2
10,AQLS,10.2
11,TIDT,≤ 0.25
12,MYDE,≤ 0.25
13,RDIQ,≤ 0.25
14,SQWW,≤ 0.25
15,NHGL,≤ 0.25
16,PHKF,≤ 0.25
17,PHVV,≤ 0.25
18,TTSG,19.5
19,GMWA,≤ 0.25
20,SPKF,≤ 0.25
21,DANG,≤ 0.25
22,WCEF,≤ 0.25
23,SIEM,≤ 0.25
24,SADL,≤ 0.25
25,YQPT,≤ 0.25
26,GRDR,≤ 0.25

row,Variant,enrichment ratio
1,SKAW,≤ 0.25
2,RYWL,≤ 0.25
3,WEVW,≤ 0.25
4,RPIN,≤ 0.25
5,WLII,≤ 0.25
6,DTMP,≤ 0.25
7,NINK,≤ 0.25
8,IPEE,≤ 0.25
9,GRMN,≤ 0.25
10,MTLN,2.09
11,DYRF,≤ 0.25
12,KGYD,≤ 0.25
13,KKLN,≤ 0.25
14,NYPI,≤ 0.25
15,WETV,≤ 0.25
16,IHGC,≤ 0.25
17,WTAS,≤ 0.25
18,KIGC,≤ 0.25
19,EYMI,≤ 0.25
20,FMNH,≤ 0.25
21,GIYE,≤ 0.25
22,TCNH,10.3
23,AHVV,≤ 0.25
24,PIMF,≤ 0.25
25,EYWD,≤ 0.25
26,ACDW,≤ 0.25

row,Variant,enrichment ratio
1,RIDG,≤ 0.25
2,LVEA,≤ 0.25
3,YQNR,≤ 0.25
4,YKYA,≤ 0.25
5,HALN,0.451
6,DNDN,≤ 0.25
7,RCLP,≤ 0.25
8,VKTE,≤ 0.25
9,DVCM,≤ 0.25
10,HLCP,≤ 0.25
11,VHQG,≤ 0.25
12,NYFN,≤ 0.25
13,RYFR,≤ 0.25
14,VGCI,4.54
15,LDTC,≤ 0.25
16,MYHD,≤ 0.25
17,HRKL,≤ 0.25
18,MQAK,≤ 0.25
19,NASY,≤ 0.25
20,LKFT,≤ 0.25
21,AIFQ,≤ 0.25
22,RPPL,≤ 0.25
23,QMGP,≤ 0.25
